Values quoted from earlier work as cited in US11439651B2 (priority 2020, dated 2022).

In the case of `OC[C@@H](O)[C@H](O)[C@@H](O)CO` [Xylitol], the solubility in water is listed as “soluble in water”.
